From the supplement of paper PMC11417369
The list shows a part of the results.

test system: PfAP2-HC AP2 domain (GST-tagged); experiment: gcPBM binding intensity (ln(normalized median fluorescence intensity)); higher = stronger DNA binding
Procedure, shortened: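 Each value is the highest Masliner-normalised natural-log median intensity across replicate spots of either orientation of a probe. The probes were primer-extended double-stranded 36-bp intergenic genomic sequences on an Agilent 4 × 180k array, alongside negative controls, exposed for 1 h to GST-tagged P. falciparum DNA-binding domains expressed in E. coli. Bound protein was picked up with Alexa488 anti-GST antibody and scanned at 488 nm.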

Sequence	gcPBM binding intensity (ln)
TTTTATTTTTAAAATTGTACATTATTATTGTTATTT [XGTACX_site1439]	9.74
TATTTGTTCTGATCCTTTTATTCAACTTTTTTTTTT [CACACA_negctrl_site978]	9.72
GGCTAAAAGTTGCACACACACAAAAAAAAAAAAAAA [CACACA_site7531]	9.92
ACCTTAATTATAATAACACACGAAAAGTGGACACAT [CACACA_site1750]	9.86
TTTAATTATTAAATGGTGCACTTGAAATATAAAAAT	9.52
CTTTTAATGGTGTAAAGTACTTTCTTAAGGTTCAAA [XGTACX_site8423]	9.36
TATACAACGTTAAGCACACACAAAAAAAATTTAATA [CACACA_site3086]	10
ATATATGGGGCGCAGGAAAAGAGTTTTGGAAATAAA [CACACA_negctrl_site1265]	9.63
AAGTTATATAAAGGAACACACATTTGATTTTATTTT [CACACA_site6814]	9.79
TGTAATCTGGAGAAAAGTACACAGTATCTGGTAGCT [XGTACX_site2039]	9.58
ATTTAAATTATAAAATGTACATTTAACAAATTTTAT [XGTACX_site770]	9.48
TAACATTATATATATTGTACATAGTAAATATTATAT [XGTACX_site5421]	9.57
ATTATTTATTATTTCTGTACGTATAAAAATAACATT [XGTACX_site1671]	9.62
ATAAAACATAAAAATCGTACAAAGGAGGATATAAGG [XGTACX_site420]	9.94
TGGAGGTCAGTTCACAGTACCCAGAAAACTCTACGA [XGTACX_site2561]	9.18
AAAATGATGTTAATTACACACATCATCTCATAAACA [CACACA_site3017]	9.79
TTTTTTTTGGTTTTCATGCACACAATTTATAAATCT [CACACA_site3107]	10
AAAGTAAAAAAAAAAACATGCACATATTTACTTTAT [TGCATGCA_site849]	9.8
AAGGGAATATACCTTACACACAAAAATGCAGATATA [CACACA_site1451]	9.96
CTAATCAAAATAAATTAACACACAATTTTAATATTG [CACACA_site7887]	9.54
ATATACTTACATATTACACACAATATTTTTAAATGT [CACACA_site3627]	9.97
GTTAATATACTTAATACACACACGAATATATATAAA [CACACA_site1181]	9.99

Sequence	gcPBM binding intensity (ln)
AAAAAAAAAAAGAAGGAAACATTTGACCAAAAATAT [GTGCAC_negctrl_site404]	9.58
ATTCTATACATATATATACACACGTAGTTTCTATTT [CACACA_site2223]	9.9
ATTTTATTTTCATATGAACACACATATATATATTAT [CACACA_site8741]	10.1
AACAACCAAAGGCACACACACAAAAAAAAAAATATA [CACACA_site399]	10.5
CTGCGTTTAATATGCGTGCACCTTGGTTTTATATCT [GTGCAC_site9525]	9.83
AAAAAAAAAAAATATTGTAGAATATGATGACTTTGT [GTGCAC_negctrl_site554]	9.64
TTTTAAATATGCCATACACACTACTATATAATAAAT [CACACA_site5119]	9.68
ACATAAGATGAAAAATGTACATTCAAAAAATGAAAT [XGTACX_site3227]	9.84
TGATAAGGATGTGAATTACTCAAAGGAAGTAATCAT [CACACA_negctrl_site1432]	9.52
ACAAAACTGTCTTTCACACAGAAATAAAAAAAAAAA [CACACA_site5829]	9.26
AAATTTCATGGGTATTGTACATAATTTTATTATATA [XGTACX_site4988]	9.62
TATTTACACCCATGCGCACACATAAATAAATAATAG [CACACA_site5350]	9.98
TATATATATGTATGTGGTACTTATATTATATACATA [XGTACX_site4550]	9.6
CCATGTAGTGAATAGGTGCATATCAAAAAAAAAAAA	9.49
ACAGAAAATAAAATTTGTACATATATAGAATAAAGA [XGTACX_site3014]	9.74
ATACATATGGTGGATCGTACATATATATAATATGTA [XGTACX_site8631]	9.69
AGATATTATTTATATATTTATATATATATATAGATA [TGCATGCA_negctrl_site77]	9.41
AGAGAAAAAAAAAATTGTACGTATGTAATAATATGC [XGTACX_site2981]	10.1
TAAATATCAAGACACACACACAAAAGTGAATAAATA [CACACA_site7723]	10.3
AAAGTAAAAGAAAGCACACACACATGGATTTATGTA [CACACA_site5997]	10.9
TTCTTTTTAAATTACACACACATATATATATGTATA [CACACA_site3515]	10.1
TGTTGTATTGAAGCTAAAAAATGAGGCAAAAAAAAA [CACACA_negctrl_site1189]	9.58

Sequence	gcPBM binding intensity (ln)
ATTTATGAGTAATACACACACTTGTGGATATATTAC [CACACA_site7735]	9.83
TTTATATAATATAAATTTTTTTTGCAGTAATAAAAA [TGCATGCA_negctrl_site570]	8.98
ACTTCAAAAAAAAAAAAATATATATATATATATTAT [GTGCAC_negctrl_site158]	9.33
TTATACACAAAAAAAAAAATATATATATATATATAT [XGTACX_negctrl_site5]	9.49
TCATACATGTATATGTGTACATATAATGTATATTCC [XGTACX_site6082]	9.6
TTATATTCTTTTCTCTTTCTACTTTTTTTTTTTTTT [XGTACX_negctrl_site317]	9.6
AAGAAAAACTTATATATATATATATATATATATATA [TGCATGCA_negctrl_site466]	9.93
TATAAATATTTATGTACACACATATACATGTTGAAT [CACACA_site5684]	10
AAAAAAAAAAAAAAAAGTACAAAAAGAAGAAAAAAA [XGTACX_site6521]	9.64
TTTTTTTTTTTTTTTTTTTTTTTATGTTCTTAAAAA [GTGCAC_negctrl_site62]	8.63
AAAATATAGGTATGCACACACATATACTTCTGTGCA [CACACA_site1409]	10.2
TTTTTTTTTTTTACGTGTACATAAATGTTAAGTAAT [XGTACX_site3901]	9.51
AAAAAAAATTTAATTGCACACAGGAAAATATAATTT [CACACA_site3810]	9.73
TAAATACAGAGGAAAATACACACGTATATATATAAA [CACACA_site3410]	9.89
TATAAATATACAAACACACATACAAACATATATATA [CACACA_site1120]	10.2
TTAATACCCAGACACACACACACAAAATAAAATACA [CACACA_site7968]	11
CAATGTTAACATATTACACACATATGTATTTATAAC [CACACA_site7314]	9.82
TAAATATATAATAAATGTACATATTAATATTATGGT [XGTACX_site1498]	9.74
ATATGATCATTTTATCATTTTGCTTTTTCTTTTTTT [CACACA_negctrl_site1325]	9.73
ATCGTGTTAAATGTTGTGCACATATAAATTACAAAA [GTGCAC_site9822]	9.66
AATTTTGGAACGTGCACACATATGTAATATATATAT [CACACA_site3067]	9.88
TTTTTTTAATGATATTGTACATTAATAAAAAATATG [XGTACX_site1719]	9.4

Sequence	gcPBM binding intensity (ln)
ATTTGATATATAATAATACACACTTACATAATTAAT [CACACA_site290]	9.73
TCTTTTTCAAGATGACGTACTTAGATTAATATAAAA [XGTACX_site3931]	9.31
TTTTTAATATATTAGGTGCACAATAATACACTTTAT	9.75
TATATATATATTTATACACACACATATATTTATATA [CACACA_site8054]	10.1
ATTAGTATAATGTAACTTAGTTAATAGTGCTAATAT [CACACA_negctrl_site764]	9.82
CAAAAGTAAGCACGCACACACAACATGAAATAAAAT [CACACA_site165]	10.8
TATACACTTATTGGTGGTACAATATATAAATATATG [XGTACX_site3289]	9.56
TTTTGATCTGAAGGAACCTAAAAAGGGAAGAGAAAA [CACACA_negctrl_site1656]	9.37
AAAAAAAACACGCGCACACACACACCCACCCACCGA [CACACA_site2206]	11.5
TATATTTATAACAACACACACAGATCATAAAACTGC [CACACA_site7086]	10.6
ACAAAATAAAACATCTGTACATATTATTATTATAAG [XGTACX_site4802]	9.71
ATATTTTGTAACTATACACACATATTTATATTATAA [CACACA_site7433]	9.73
ATATATATAAATAATTGTACATAATAATAAAATATA [XGTACX_site4839]	9.73
ATATAAAATATTACGTGTACACATAAATAAAAATAA [XGTACX_site3746]	9.92
CAAGTAGATATTATACGTACATATATATATATATAT [XGTACX_site8349]	9.61
TTTTATACATATTTTACACACTAAAATATACCTATA [CACACA_site6286]	9.79
TAAAAAATATACATTCGTACATATATATTATATATA [XGTACX_site7918]	9.51
TACATATATATATTATGTACATAAGGTTTGAGTTCA [XGTACX_site2726]	9.69
GAAAAAAAAGCTTGCACACGTATTTGCTTTATGTAT [CACACA_site4931]	9.92
TTTTTGGTATTATTGTGTACTTATAAATAATATAAT [XGTACX_site4019]	9.64
AAAAAAAAATATACATATATATATATATATATATAT [CACACA_negctrl_site1763]	9.61
ATAATTCCAAGAATTTCATATATCTGAATTTTAGGT [GTGCAC_negctrl_site283]	9.4
